# Laboratory results: the supplement of paper PMC8047034
# Structures can show the parent of a compound that is named as a salt. Some of the results follow. Many values rest on one well or one pass, so single values are uncertain.
# Tests used:
# OVCAR4 = assay: log2 surviving fraction (library drug vs vehicle, or drug + carboplatin vs carboplatin alone; relative to plate median); ovarian cancer lines: OVCAR4 is platinum-sensitive and Ov4Carbo platinum-resistant; higher = more cell survival; details: library drug concentration 10 µM, 7 days
# Ov4Carbo = assay: as above; details: library drug concentration 10 µM, 7 days
SMILES,log2 surviving fraction (OVCAR4; carboplatin co-treatment 0 µM),log2 surviving fraction (OVCAR4; carboplatin co-treatment 5 µM),log2 surviving fraction (Ov4Carbo; carboplatin co-treatment 0 µM),log2 surviving fraction (Ov4Carbo; carboplatin co-treatment 5 µM)
CCN(CCCc1ccccc1)CCCc1ccccc1 [Alverine Citrate],0.93,0.421,0.682,-0.459
CCC[C@@H]1C[C@@H](C(=O)N[C@@H]([C@H]2O[C@H](SC)[C@H](OP(=O)(O)O)[C@@H](O)[C@H]2O)[C@H](C)Cl)N(C)C1 [Clindamycin phosphate],-1.62,-2.32,-0.552,-0.551
CCCOc1ccc2[nH]c(NC(=O)OC)nc2c1 [Oxibendazole],-6.34,-5.52,-4.48,-4.66
O=C1O[C@H]([C@@H](O)CO)C(O)=C1O [Vitamin C (Ascorbic acid)],1.02,0.428,0.364,0.0865
O=C(Nc1cccc2c(=O)cc(-c3nnn[nH]3)oc12)c1ccc(OCCCCc2ccccc2)cc1 [Pranlukast],0.614,0.943,0.163,0.0365
C=Cc1c(C)c2cc3nc(cc4[nH]c(cc5nc(cc1[nH]2)C(C)=C5CCC(=O)O)c(CCC(=O)OC)c4C)[C@@]1(C)C3=CC=C(C(=O)OC)[C@H]1C(=O)OC [Verteporfin (Visudyne)],-0.752,-1.4,-3.44,-1.04
COc1ccc2[nH]c([S@@+]([O-])Cc3ncc(C)c(OC)c3C)nc2c1 [Esomeprazole sodium (Nexium)],-0.912,0.0693,-0.322,-0.409
"C[C@H]1[C@H](NC(=O)/C(=N\OC(C)(C)C(=O)O)c2csc(N)n2)C(=O)N1S(=O)(=O)O [Aztreonam (Azactam, Cayston)]",0.922,0.683,0.945,0.338
